# This is one part of the list.
# B1: chrX:17800420:17802010:-|CDS|ENSG00000131831|control|control|control (ssRNA)
# RNA: GGGAGUUCUACAGUCCGACGAUCCUUCAGGGCUAUGACAUCAACAGCCAAGGGGAAGAGUCCAUGGGAAAUGCAGAGCCCCUUAGGAAACCCAUCAAAAACCGGAGCAUAAAGUUAAAGAAAGUGAACUCCCAGGAAAUACACCAACAGAGGAUUGAGCAUCA
# B2: chr17:18931026:18931127:+|3pUTR|ENSG00000141127|msi1|FALSE|unique (ssRNA)
# RNA: GGGAGUUCUACAGUCCGACGAUCGAUACCUGCAAUUGAAAAGCCGAAAAGAUUAUACUGUCAAGUCCAGUAAAUGACAUUUUUAGAGAUGCUUUUGUAGACAAGCAUAUGGAAUAUGUGAUUGUAUUUAUUUUCUGCAACUAACAACAGAGGAUUGAGCAUCA
# B3: chr1:108700024:108700125:+|3pUTR|ENSG00000134186|msi1|total|mutant (ssRNA)
# RNA: GGGAGUUCUACAGUCCGACGAUCCACAUUGAAUCCUAUAAAUGAUUAAAUCUGCUUUUUUCCCCCACGUUGAGAUUGUGCAGCCGUUCGCACUCCUCAAGCUCUCCCUGCCGGCUGCAUUUUCAUUUCCUCUUUCGUGCCGGGCAACAGAGGAUUGAGCAUCA
# B4: ENSG00000198589:be:win_7301|CDS|ENSG00000198589|bound_else_gene|NA|bound_elsewhere_windowed (ssRNA)
# RNA: GGGAGUUCUACAGUCCGACGAUCAUUACUUGACCUAUGAAGGAGCUGUCAAUCUGAAUUCAAUAACUGAUCCUGUGUUGAGAGAGGCUGUUGAAGCUCAAAUCCGAAGUUUUGGACAGACUCCUUCUCAACUACUCAUAGAGCCAACAGAGGAUUGAGCAUCA
# B5: chr6:144852070:144852171:+|3pUTR|ENSG00000152818|unk|total|mutant (ssRNA)
# RNA: GGGAGUUCUACAGUCCGACGAUCAAGUCCUUAACCGUUCUUGAAACUCCCCGUUGUUUUCUUGUUGAAAGCAGACACACAUUCCGUGCACGGCUUAUUUUACCUUUCGGGUGAAAGAUCAGAUGUUUUUAUACCCUUCACUUGCAACAGAGGAUUGAGCAUCA
# B6: ENSG00000107863:be:win_4801|CDS|ENSG00000107863|bound_else_gene|NA|bound_elsewhere_windowed (ssRNA)
# RNA: GGGAGUUCUACAGUCCGACGAUCUCCAGUCGACUGAGCCCUGAGGUGCAAUCCGUGGCAGAGAGCAAGGGGGACGAGGCAGAUGACGAGAGAAGCGAACUCAUCAGUGAAGGGCGGCCUGUGGAAACCGACAGCGAGAGCGAGCAACAGAGGAUUGAGCAUCA
# B7: ENSG00000009954:stop:overlap|stop_codon|ENSG00000009954|stop_codon|NA|stop_codon (ssRNA)
# RNA: GGGAGUUCUACAGUCCGACGAUCAUGAAGGGGACAGUGAGCCAGAGGCCGUUGGACAGUCCAGGGGACGAAGACAGAAGAAGUAGAGAGGCAGGGCCGUGGUGACAGUAUCAGUGAGUGCCAUACAGAAUUGUGUAUUCACCACAACAGAGGAUUGAGCAUCA
# B8: chr10:88913158:88913259:+|CDS|ENSG00000138134|unk|FALSE|unique (ssRNA)
# RNA: GGGAGUUCUACAGUCCGACGAUCGCAUCAGAGAUUGAUAGAGGCAGAAAGGAAGCGGAUUGCUCAGAUGCGCCAGCAGCAGCUAGAAUCGGAGCAGUUUCUGUUUUUCGAAGAUCAACUCAAGAAGCAAGAGUUAGCCCGAGGCAACAGAGGAUUGAGCAUCA
# B9: ENSG00000184117:stop:overlap|stop_codon|ENSG00000184117|stop_codon|NA|stop_codon (ssRNA)
# RNA: GGGAGUUCUACAGUCCGACGAUCUGGGCAACUGGAACACGUGGUAUGGGGAGCAGGACCAGGCAGGUCAUUCCUGGUUUUGGUAGAUUUCUAUCCAUACAGUACUUUUGCCAUUUCCUUUGGGAAAAAGACCUUUAAACCAUACAACAGAGGAUUGAGCAUCA
# B10: chr15:34980028:34980129:-|3pUTR|ENSG00000198146|msi1|FALSE|unique (ssRNA)
# RNA: GGGAGUUCUACAGUCCGACGAUCGGUUCUGUUAUUUAAGCCUGUUCUAAGUUUGAUCAAAUGGCAAUGACUAGGUCUAGUUUUAGUUUUUAUUUUUGCAGGAGUCUAUUGCUAAAGAAUUUUAUUUUGAUGCUUGUUAAAUUUCAACAGAGGAUUGAGCAUCA
# B11: chr5:80437677:80437780:+|CDS|ENSG00000039319|unk|FALSE|unique (ssRNA)
# RNA: GGGAGUUCUACAGUCCGACGAUCUUCCUUUCAGGAAGAUAAGACUGUUAUAAAACAAUCUGCACAAGAAGACUCAAAAAGUUUAGACCUUAAGGAUAAUGAUGUAAUCCAAGAUUCCUCUUCAGCUUUACAUGUUUCCAGUAACAACAGAGGAUUGAGCAUCA
# B12: chr2:112781603:112781826:-|CDS|ENSG00000115008|control|control|control (ssRNA)
# RNA: GGGAGUUCUACAGUCCGACGAUCGAGUAUCUCUGAAACCUCUAAAACAUCCAAGCUUACCUUCAAGGAGAGCAUGGUGGUAGUAGCAACCAACGGGAAGGUUCUGAAGAAGAGACGGUUGAGUUUAAGCCAAUCCAUCACUGACAACAGAGGAUUGAGCAUCA
# B13: chr1:153933785:153933886:-|CDS|ENSG00000198837|msi1|FALSE|unique (ssRNA)
# RNA: GGGAGUUCUACAGUCCGACGAUCGGGAAGUUGGUGCAGAGGCUGGGGUCCAUCUUCCCUCAUUCUUUUCUGUGCUGCAGUGAUAGAGGCCUUGGGGGUCCUGGAACCCCGGGGAUCACCUGUGCCCUGGCACGAUGGAAGUCUCAACAGAGGAUUGAGCAUCA
# B14: chr6:89794666:89794767:-|CDS|ENSG00000112159|unk|FALSE|unique (ssRNA)
# RNA: GGGAGUUCUACAGUCCGACGAUCCCAGUCUUUCAAAGACUUUUCCUAGAGAGUUCAGAUGCUAAUCCAGUACGCUAUGGACGUAGGAGGAUGAAGCUCCGGGACCUAAUGGAAGCAGCCUUCAAGUUUCUGCAGCAGGAGCAGCAACAGAGGAUUGAGCAUCA
# B15: ENSG00000177108:stop:overlap|stop_codon|ENSG00000177108|stop_codon|NA|stop_codon (ssRNA)
# RNA: GGGAGUUCUACAGUCCGACGAUCUGGGCCUGCUGGUCCCCAUGUUCAAUGUCGGAAGUGAGAGCUCCAAGCAGCAGGAUAAGUAGUAGACACUCCCGUCAUUUAUCUCUCUGUCUCUGUCUUGACUCCUCCUGAGCAUAAAACCAACAGAGGAUUGAGCAUCA
# B16: chr17:4948375:4948459:-|5pUTR_CDS|ENSG00000108518|msi1_unk|FALSE|overlapping (ssRNA)
# RNA: GGGAGUUCUACAGUCCGACGAUCAGCCGAGGCAGCUCGAGCCCAGUCCGCGGCCCCAGCAGCAGCGCCGAGAGCAGCCCCAGUAGCAGCGCCAUGGCCGGGUGGAACGCCUACAUCGACAACCUCAUGGCGGACGGGACCUGUCAACAGAGGAUUGAGCAUCA
# B17: chr19:6534681:6534787:+|CDS|ENSG00000125657|unk|FALSE|unique (ssRNA)
# RNA: GGGAGUUCUACAGUCCGACGAUCAGAGGACACGAAGGAGCUGGUGGUGGCCAAGGCUGGAGUCUACUAUGUCUUCUUUCAACUAGAGCUGCGGCGCGUGGUGGCCGGCGAGGGCUCAGGCUCCGUUUCACUUGCGCUGCACCUCAACAGAGGAUUGAGCAUCA
# B18: chr19:33301014:33301115:-|3pUTR|ENSG00000245848|unk|total|mutant (ssRNA)
# RNA: GGGAGUUCUACAGUCCGACGAUCUCCCUGCGAGGAGGGGAGAAUUCUUGGGGCUGAGCUGGGAGCCCGGCAACUCCCGUAUUCCGGAUAACCUUGUGCCUUGGAAAUGCAAACUCACCGCUCCAAUGCCUACUGAGCCGGGGGCAACAGAGGAUUGAGCAUCA
# B19: ENSG00000171649:stop:overlap|stop_codon|ENSG00000171649|stop_codon|NA|stop_codon (ssRNA)
# RNA: GGGAGUUCUACAGUCCGACGAUCCUCAGGUUGUGGCCAUGGAACAGAGGAUGAAGAGACACCUUCUGACCAGAAUGUUUCUGUAGGAGUGUCACAGUCAAAGGCAGGUUCAUCCACACAGAAGACUCAAUCCUGUGAGAUGUGCAACAGAGGAUUGAGCAUCA
# B20: chr15:32969305:32969406:-|CDS|ENSG00000248905|unk|FALSE|unique (ssRNA)
# RNA: GGGAGUUCUACAGUCCGACGAUCCGAGCAUGCAAUGAUAACAGCGAGACUAGAAGAAACCAUUGAAAAUCUGAAACACGAGCUAGAACACAGAUGGCGAGGGGGUUGUGAAGAGAGGAAAGAUGUGUGCAUUUCCACCGAUGACAACAGAGGAUUGAGCAUCA
# B21: chr1:193013303:193013404:-|3pUTR|ENSG00000116750|unk|FALSE|unique (ssRNA)
# RNA: GGGAGUUCUACAGUCCGACGAUCAAACCACUCUAGCUAUUUGAAGAGGAAUGCAGAUUUAUAUUGGGAGUUUUGAAACUACAUAGUUUCUUACAAAAUCAUUGGAAGGUUUGGAGGAGCGGUUUCAAGCUUAAGUCUCCAGAGCAACAGAGGAUUGAGCAUCA
# B22: chrX:120258281:120258382:+|3pUTR|ENSG00000177485|msi1|FALSE|bound_elsewhere (ssRNA)
# RNA: GGGAGUUCUACAGUCCGACGAUCUGUACAAUCUUCCCUGUCAUGACUUUAAGUUCUACUUUUCAUUAACCAUGGCCUGAUAUUAGUUCUUAGAGCUUCUUGUGGCAAAAAUAAAAUGAUUUAAUUCUGAUGUUUGAGUGCGUGCAACAGAGGAUUGAGCAUCA
# Biological target: MSI1 full-length (mouse, UniProt Q61474 1-362)
# Chain of UniProt Q61474 (Q61474 whole entry): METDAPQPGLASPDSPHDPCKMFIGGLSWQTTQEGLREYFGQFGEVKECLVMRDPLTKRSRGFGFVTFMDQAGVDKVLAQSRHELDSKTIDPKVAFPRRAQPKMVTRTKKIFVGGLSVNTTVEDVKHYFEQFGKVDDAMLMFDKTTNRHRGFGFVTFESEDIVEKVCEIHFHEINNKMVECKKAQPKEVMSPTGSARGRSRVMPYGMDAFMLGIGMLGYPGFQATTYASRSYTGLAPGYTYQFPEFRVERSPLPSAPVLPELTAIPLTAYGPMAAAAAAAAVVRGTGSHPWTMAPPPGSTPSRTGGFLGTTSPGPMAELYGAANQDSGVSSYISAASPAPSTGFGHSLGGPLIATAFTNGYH
# Assay: nsRBNS (natural sequence RNA bind-n-seq); RBNS binding buffer (assumed for nsRBNS): 25 mM Tris pH 7.5, 150 mM KCl, 3 mM MgCl2, 0.01% Triton X-100, 500 ug/ml BSA, 20 U/ml SUPERase-In, 4 C; UNK is unkempt and MSI1 is Musashi-1; names of the RNAs are library labels; protein concentration not given here; high values mean tight binding
row,Binder,binding signal [enrichment R]
1,B1,0.687
2,B2,1.74
3,B3,0.603
4,B4,0.304
5,B5,0.347
6,B6,0.556
7,B7,0.379
8,B8,0.374
9,B9,1.55
10,B10,77.2
11,B11,0.882
12,B12,0.419
13,B13,0.553
14,B14,0.369
15,B15,0.404
16,B16,0.624
17,B17,0.554
18,B18,0.362
19,B19,0.359
20,B20,0.963
21,B21,0.404
22,B22,0.662

# Reference: paper PMC12136788
